PubChem BioAssay AID1346428 (National Center for Advancing Translational Sciences (NCATS), 2018)
About 1,200 (2.5%) of roughly 48,000 compounds were called active. Another 2% or so got no clear call; they are omitted.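 Rule for the calls: active = activation of at least 60% and not above a set upper limit (about 1 call in 100 departs from these limits); inconclusive = activation of 40% to 60%, or above that upper limit; inactive = activation under 40%.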 This is one part of the list.

These compounds were tested against Probable G-protein coupled receptor 32 (Homo sapiens) (UniProt O75388) (assay: qHTS for Agonists of Human Resolvin D1 Receptor DRV1). Conditions: CHO-K1 GPR32 beta-arrestin PathHunter luminescence, 90 min; at 76.9 µM; active compounds read high; zero percent set by DMSO-only wells.
Sequence of UniProt O75388 (O75388 whole entry, looked up, the tested form may be a part): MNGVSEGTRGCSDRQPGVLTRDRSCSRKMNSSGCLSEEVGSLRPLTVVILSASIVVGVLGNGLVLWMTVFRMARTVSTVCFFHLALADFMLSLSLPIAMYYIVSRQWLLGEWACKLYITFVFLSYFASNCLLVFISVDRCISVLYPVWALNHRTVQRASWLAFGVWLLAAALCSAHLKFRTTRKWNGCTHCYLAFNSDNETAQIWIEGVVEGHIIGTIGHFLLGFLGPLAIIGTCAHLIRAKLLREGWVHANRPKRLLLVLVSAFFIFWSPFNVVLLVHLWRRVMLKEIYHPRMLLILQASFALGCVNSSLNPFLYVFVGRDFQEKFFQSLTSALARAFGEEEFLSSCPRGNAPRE
Outline: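 Agonism was scored as beta-arrestin recruitment to ProLink-fused GPR32 in stably transfected CHO-K1 cells, giving a chemiluminescent beta-Gal signal; compounds were incubated 90 min at 37 °C.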
Note: 0% is about no effect.

activation, inactive:
COc1ccc2c(c1)CCC1C2CC[C@@]2(C)C1CC[C@@H]2NCCCCCCN1C(=O)C=CC1=O (stereo partly drawn) -3.67%, COc1ccc(CCn2c(=O)[nH]c3cc(C(=O)N4CCN(c5ccccc5)CC4)ccc3c2=O)cc1OC -6.24%, CC1=C(c2ccc(C)cc2)S(=O)(=O)N(Cc2ccc(C(=O)Nc3ccccc3C)cc2)C1=O -12%, Cc1cc(O)c(C(c2ccc(Cl)cc2)N2CCN(c3ccccc3)CC2)c(=O)n1Cc1ccco1 (stereo not drawn) -21%, Cc1cc2ccccc2n1CCNC(=O)c1ccc(F)cc1 27.3%, CCN1C(=O)C2(c3ccccc31)c1c(oc3ccc(C)cc3c1=O)C(=O)N2CCCOC(C)C (stereo not drawn) -25.2%, COc1ccc(NC(=O)Cn2c(=O)oc3cc(S(=O)(=O)N4CCCCC4C)ccc32)cc1 (stereo not drawn) 22.6%, COC(=O)c1ccccc1NC(=O)CCCN1C(=O)C(c2ccccc2)Oc2cccnc21 (stereo not drawn) 8.72%, Cc1oc(-c2ccc(C(=O)NC(C)c3ccccc3)cc2)nc1CS(=O)(=O)c1ccccc1 (stereo not drawn) -0.826%, O=C(c1ccccc1F)N1CCC(c2nc3c(nnn3Cc3cccc(F)c3)c(=O)[nH]2)CC1 -0.752%, COc1cc(OC)c(NC(=O)c2cc(C(C)=O)n3ccccc23)cc1Cl 10.4%, COc1ccc(OCC(=O)N(Cc2cccc(OC)c2)C2CCS(=O)(=O)C2)cc1 (stereo not drawn) -6.92%, Cc1ccc(Nc2ncnc3c2cnn3-c2ccc(C)cc2)cc1 -3.24%, COCCNC(=O)CCCn1c(=O)[nH]c2ccsc2c1=O -26.4%, Brc1ccc(-c2noc(-c3ccccc3)n2)o1 12.8%, COc1ccc(C)cc1NS(=O)(=O)c1c(C)nc2sc(C)cn2c1=O -15.2%, CCOc1ccccc1NC(=O)CSc1ccc2nnc(CCNS(=O)(=O)c3ccccc3)n2n1 -14.6%, COc1ccc(NC(=O)c2sc3nc(C)c(C(=O)Nc4ccc(C)cc4C)c(-c4ccccc4Cl)c3c2N)cc1 -6.08%, COc1ccc(-n2cc(C(=O)N(C)c3cc(C)ccc3OC)c3ccccc3c2=O)cc1 -28.9%, CSCCC(NS(=O)(=O)c1ccc2c(c1)oc(=O)n2C)C(=O)NCc1ccc(F)cc1 (stereo not drawn) -8.78%, COc1ccccc1NC(=O)C1=C(C)Nc2nc(SCC(=O)c3ccc(C)cc3)nn2C1c1ccccc1C (stereo not drawn) 7.41%, Cc1ccc(Cl)cc1N(C)C(=O)c1noc2c1CCCCC2 -19.1%, CN(C)CCNC(=O)CCCn1c(=O)c2cccn2c2ccccc21 -0.348%, CN(C)CCN(Cc1ccccc1)S(=O)(=O)c1ccc(-c2cc(C(F)(F)F)on2)s1 19.7%, CCOc1ccc(NS(=O)(=O)c2ccc3[nH]cc(C(=O)NCCOC)c(=O)c3c2)cc1 21.8%, COc1ccc(-c2oc3ncn4nc(COc5ccc(C)cc5)nc4c3c2-c2ccc(OC)cc2)cc1 -8.76%, CCOC(=O)c1c(NC(=O)CCCOc2ccc(Cl)cc2)sc2c1CCC2 -5.34%, COc1ccc(OC)c(-c2noc(N3CCN(c4ccc(C(C)=O)cc4)CC3)n2)c1 20.7%, COc1ccc(CNC(=O)c2ccc(NC(=O)N3CCSc4ncccc43)cc2)cc1OC -8.08%, O=C(NCCc1csc2nc(-c3ccccc3F)nn12)c1ccccc1C(F)(F)F 25.9%, COc1cccc(CN(C(=O)c2ccc(C(C)(C)C)cc2)C2CCS(=O)(=O)C2)c1 (stereo not drawn) -16%, CCOC(=O)Cn1c(=O)oc2cc(S(=O)(=O)N3CCN(c4ccccc4OC)CC3)ccc21 -16.2%, COCCCNC(=O)c1ccc(Cn2c(=O)c3ccccc3n(Cc3ccccc3C)c2=O)cc1 -8.59%, CCOc1ccc(-c2nnc(SCC(=O)Nc3cc(F)ccc3F)o2)cc1 6.45%, COc1cccc2c1Oc1nc(-c3ccccc3)nc(SCC(=O)Nc3ccccc3)c1C2 2.17%, CCCOc1ccc(C(=O)Nc2ccc3nn(-c4ccc(OC)c(Cl)c4)nc3c2)cc1 7.51%, Cc1ccccc1NC(=O)c1c(C)oc2ccc(O)c(CN3CCC(C)CC3)c12 -0.284%, COc1ccc(NC(=O)c2cnn(-c3ccc(F)cc3F)c2C2CCN(C(=O)OC(C)(C)C)CC2)cc1Cl -22.7%, O=C(C1CCCN(S(=O)(=O)c2cccc3nonc23)C1)N1CCN(c2ccccc2Cl)CC1 (stereo not drawn) 1%, COc1ccc(CCNC(=O)c2ccc3nc(Cc4ccccc4)oc3c2)cc1OC 2.64%, COc1ccc(N(CC(=O)NCCc2ccccc2)S(=O)(=O)c2ccc(OC)c(OC)c2)cc1 -7.71%, Nc1nonc1-c1nc2ccccc2n1Cc1c(Cl)cccc1Cl 21.2%, O=C(CCCl)NCc1ccccc1 -15.5%, COc1cc(OC)c(NC(=O)C(c2ccccc2)N2Cc3ccccc3C2=O)cc1Cl (stereo not drawn) -27.1%, COc1ccc(NC(=O)C2CCN(S(=O)(=O)c3ccc4[nH]c(=O)ccc4c3)CC2)cc1Cl 15.9%, CCS(=O)(=O)N1CC(=O)N(c2ccc(Cl)cc2C)C(C)(C(=O)NC2CCCCCC2)C1 (stereo not drawn) 17.2%, CCc1nnc(SCc2cccc(F)c2)c2cc3sc(C)cc3n12 -22.3%, CCOc1ccc(N2CC(c3nc4ccccc4n3CCCOc3ccccc3OC)CC2=O)cc1 (stereo not drawn) 35.2%, COc1ccc(CCNC(=O)C2(c3cccs3)CCOCC2)cc1 -4.09%, O=C(Nc1nonc1-c1ccc(Cl)cc1)c1ccccc1F 34.4%, CC(C)CN(CCCNC(=O)c1cc(-c2ccc(Br)s2)nc2ccccc12)CC(C)C -2.03%, CCOC(=O)c1scc(-c2ccccc2)c1S(=O)(=O)Nc1ccc(N(C)C)cc1 -25.2%

activation, active:
Cc1nn(Cc2noc(C(=O)NCc3cccc(F)c3)n2)c(C)c1Br 73.1%
